Results as given in paper PMC4336329 (PLoS ONE, 2015).
The campaign covered roughly 310,000 compounds. About 2,200 (0.71%) showed an effect of 50% or more. The effect is printed as a negative number. Some of the results follow.

The compounds below were run against human ether-à-go-go-related gene (hERG) potassium channel (human, UniProt Q12809) (assay: primary screen, population patch clamp on CHO cells stably expressing hERG).
Chain of human ether-à-go-go-related gene (hERG) potassium channel (Q12809 whole entry, looked up): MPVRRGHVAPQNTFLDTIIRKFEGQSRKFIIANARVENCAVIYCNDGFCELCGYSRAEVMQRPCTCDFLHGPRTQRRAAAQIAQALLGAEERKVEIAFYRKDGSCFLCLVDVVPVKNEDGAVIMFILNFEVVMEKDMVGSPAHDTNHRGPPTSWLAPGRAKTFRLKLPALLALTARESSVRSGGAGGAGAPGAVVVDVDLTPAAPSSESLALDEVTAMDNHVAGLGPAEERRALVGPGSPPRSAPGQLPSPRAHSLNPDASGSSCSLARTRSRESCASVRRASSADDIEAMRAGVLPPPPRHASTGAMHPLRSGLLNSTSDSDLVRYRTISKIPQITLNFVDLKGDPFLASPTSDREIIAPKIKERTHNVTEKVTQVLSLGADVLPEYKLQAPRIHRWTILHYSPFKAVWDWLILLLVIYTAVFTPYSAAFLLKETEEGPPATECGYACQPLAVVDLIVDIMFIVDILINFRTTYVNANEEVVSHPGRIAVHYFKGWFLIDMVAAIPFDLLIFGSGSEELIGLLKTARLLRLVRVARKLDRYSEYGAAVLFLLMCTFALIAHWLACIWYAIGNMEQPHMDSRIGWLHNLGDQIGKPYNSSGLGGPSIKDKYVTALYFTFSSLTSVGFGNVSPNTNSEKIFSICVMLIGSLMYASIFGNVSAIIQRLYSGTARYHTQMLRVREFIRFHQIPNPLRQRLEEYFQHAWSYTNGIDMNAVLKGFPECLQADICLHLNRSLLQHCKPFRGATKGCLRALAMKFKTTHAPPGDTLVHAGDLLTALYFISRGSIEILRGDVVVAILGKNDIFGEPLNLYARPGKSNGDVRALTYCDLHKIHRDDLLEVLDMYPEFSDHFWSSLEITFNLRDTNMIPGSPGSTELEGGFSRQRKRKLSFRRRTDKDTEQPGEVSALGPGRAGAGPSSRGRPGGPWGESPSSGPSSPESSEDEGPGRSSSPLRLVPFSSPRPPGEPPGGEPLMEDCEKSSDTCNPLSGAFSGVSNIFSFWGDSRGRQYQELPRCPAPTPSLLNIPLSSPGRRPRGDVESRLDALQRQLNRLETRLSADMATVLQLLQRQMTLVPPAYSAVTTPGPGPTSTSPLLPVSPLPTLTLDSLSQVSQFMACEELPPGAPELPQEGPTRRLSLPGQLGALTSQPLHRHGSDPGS

SMILES	hERG current change (%, negative = inhibition) at 1uM [%]
O=C(c1ccc(N2CCCS2(=O)=O)cc1)N1CCN(c2ccc(F)cc2)CC1	-5.19
Cc1ccc(-n2nc(C)c(C3(O)C(=O)N(C)c4ccccc43)c2N)cc1 (stereo not drawn)	-15.6
CCOC(=O)N1CCc2c(sc3c2c(=O)n(Cc2ccccc2)c(=O)n3Cc2ccccc2F)C1	2.72
C/C(=N\NC(=O)c1ccn(C)n1)c1cccc(NC(=O)c2ccncc2)c1	2.32
Cn1c(=O)c2ccccc2n(CC(=O)NCCC2=CCCCC2)c1=O	12.4
O=c1[nH]c(=O)n([C@H]2C[C@H](O)[C@@H](CO)O2)cc1F	17
COc1ccc(CC(=O)Nc2ccc(C)c(S(=O)(=O)N3CCCCCC3)c2)cc1	10.3
CCCCCCCCCCOC(=O)Cn1c(COc2ccc(Cl)cc2)[n+](C)c2ccccc21.[Cl-]	-79.1
C=CCn1c(SCC(=O)Nc2nnc(CC)s2)nnc1-c1ccncc1	15.7
COc1ccc(C(C)=O)cc1COc1ncnc2ccccc12	9.78
CCOc1cccc(CN2CCC(n3nccc3NC(=O)C3CC3)CC2)c1O	-42.5
CC(=O)Nc1ccc(SCC(=O)Nc2ccc(Cl)cn2)cc1	17
Cc1nc2sc(C(N)=O)c(N)c2c(C)c1CC(=O)c1ccccc1	7.28
COc1ccc(C(CNC(=O)c2ccc(NS(=O)(=O)c3ccc(F)cc3)cc2)N2CCOCC2)cc1 (stereo not drawn)	13
Cc1ccc(OCC(=O)N(C)CC(=O)Nc2ccc(F)c(F)c2F)cc1	14.5
Cc1nc(NC(=O)c2ccccc2)sc1-c1csc(NCc2ccco2)n1	2.04
Nc1cc(-c2ccc(OC(F)(F)F)cc2)nn1-c1ccc(Cl)c(Cl)c1	18.7
O=S(=O)(c1ccc(Br)s1)N1CCC(Cc2ccccc2)CC1	12.9
CCCCN(C)C(=O)CCCc1c[nH]c2ccccc12	7.76
Cc1ccc([N+](=O)[O-])cc1NC(=O)c1ccoc1C	6.4
COc1ccc(C(=O)NN=C2CCCC2)c(OC)c1	5.94
Nc1ncnc2c1ncn2C1OC(C(=O)NC2CC2)C(O)C1O (stereo not drawn)	10.2

SMILES	hERG current change (%, negative = inhibition) at 1uM [%]
Cc1cc(NC(=O)C2CCCCC2C(=O)O)no1 (stereo not drawn)	10.8
O=C(c1ccccc1)c1ccc(OCC(O)CN2CCOCC2)cc1 (stereo not drawn)	13.4
O=C(CN1C(=O)NC2(CCCCC2)C1=O)NCc1ccc2c(c1)OCO2	9.85
CCC(=O)N1CCc2cc(S(=O)(=O)NCCC(=O)N3CCc4ccccc4C3)ccc21	-5.34
CCOc1ccc2[nH]c(=O)c(CN(Cc3ccco3)Cc3nnnn3Cc3ccccc3)cc2c1	8.75
CCS(=O)(=O)Nc1ccc(C2=NN(C(=O)c3ccco3)C(c3cccs3)C2)cc1 (stereo not drawn)	6.68
Brc1cccc(CNCC2CCCO2)c1 (stereo not drawn)	16.8
COc1ccc(CN2CCN(Cc3ccc4ccccc4c3)CC2)cc1OC.O=C(O)C(=O)O	-21.7
CC(C)(C)NC(=O)c1ccccc1-c1nc(-c2ccccc2Cl)no1	5.53
COc1ccccc1-n1cc2c([N+](=O)[O-])cc([N+](=O)[O-])cc2n1	21.6
NC(=NCCc1c[nH]c2ccccc12)NC(=O)c1ccc(F)cc1	6.71
CCC(c1nnnn1C(C)(C)C)N(Cc1cccs1)Cc1cc2cc(C)c(C)cc2n2nnnc12 (stereo not drawn)	3.93
O=C(CCCn1nnnc1CN1CCOCC1)N1CCN(c2ccccc2F)CC1	10.1
c1ccc(-c2ccc(CN3CCSCC3)cc2)cc1	10.3
O=C(CSc1nncn1-c1ccccc1)NC1CCCCC1	12.3
C/C(Cn1cnc([N+](=O)[O-])n1)=N/NC(=O)COc1ccccc1Cl	1.07
O=C(Nc1cc(Sc2ccccn2)cc([N+](=O)[O-])c1)c1cccc(Cl)c1	7.66
CC(=O)N(\C=C/C=C/C=C1\Sc2ccccc2C1=O)c1ccccc1	-1.56
CCCn1c(=O)c(C(=O)Nc2cc(C)ccn2)c(O)c2ccccc21	18.5
Cc1cccc(OCC(=O)N2CCN(C(=O)Cc3ccccc3)CC2)c1	5.35
COc1cc(/C=N/Nc2nc(C)cc(C)n2)cc(OC)c1OC	13.5
O=C(Nc1ncc2c(n1)-c1ccccc1CC2)c1ccc(F)cc1	7.78

SMILES	hERG current change (%, negative = inhibition) at 1uM [%]
CCN(CC)C(=O)Cn1cc(S(=O)(=O)CC(=O)N2CCCCCC2)c2ccccc21	10.6
CCn1cnc2cc(NCc3ccc(C)cc3)ccc21	-16.2
CC(C)CCN=CC1=C(O)CC(c2ccccc2)CC1=O (stereo not drawn)	13.8
CCOC(=O)C1CCN(c2c(C(=O)c3ccccc3)cnc3ccc(CC)cc23)CC1	13.6
O=C1Nc2ccccc2/C1=C/c1ccc([N+](=O)[O-])cc1	-9.62
COc1cccc(NC(=O)COC(=O)c2ccc(F)cc2F)c1	6.24
Cc1ccc(C(=O)Oc2cc(-c3ccccc3)no2)cc1	12.5
CCN(CC)S(=O)(=O)c1cccc(C(=O)OCC(=O)N2CC(=O)Nc3ccccc32)c1	7.65
COc1ccccc1Nc1nc2ccc(C)cc2cc1C#N	25.9
CC(c1cccs1)N(C(=O)Nc1ccccc1)C1CCCCC1 (stereo not drawn)	7.52
CN(C)C(=O)c1ccc(COc2ccccc2Br)o1	11.1
O=C1CC2(CCN(C(=O)c3ccccc3[N+](=O)[O-])CC2)Oc2ccccc21	-19
O=C(CSc1nc2ccccc2[nH]1)c1ccc2c(c1)OCO2	6.72
Cc1nc(N)nc(SCc2ccc([N+](=O)[O-])cc2)c1N	-70.8
CCCCCCOC(=O)C[N+](C)(C)CCOC1CC2CCC1(C)C2(C)C.[Cl-] (stereo not drawn)	-69
N#Cc1ccc(-c2ccccc2)nc1SCC(=O)c1cccc(Cl)c1	19.4
CC1CN(CCOc2ccc(F)cc2)CC(C)O1.O=C(O)C(=O)O (stereo not drawn)	23.1
Cc1nc(SCC(=O)Nc2c(C)n(C)n(-c3ccccc3)c2=O)n[nH]1	9.7
CCc1nc(SCC(=O)NNC(=O)c2ccc(OC)cc2)c2ccccc2n1	3.74
O=C(Cc1ccc(Cl)cc1)Nc1cccc(C(=O)Nc2ccccc2C(=O)O)c1	14.6
Cc1nnc(OC(C)C)c2nn(-c3ccccc3F)c(C)c12	5.1
COc1ccc(-n2ncc3c(NCCCN4CCOCC4)ncnc32)cc1	7.9

SMILES	hERG current change (%, negative = inhibition) at 1uM [%]
CCN1/C(=C/C=C/c2oc3ccc(-c4ccccc4)cc3[n+]2CC)Oc2ccc(-c3ccccc3)cc21.CCOS(=O)(=O)[O-]	-2.56
CCOC(=O)c1c(-c2ccccc2)nnn1-c1nc(OC)nc(N2CCOCC2)n1	-3.86
CCN(Cc1cc(=O)n2ccsc2n1)Cc1nc2cc(OC)c(OC)cc2c(=O)[nH]1	6.28
COC(=O)c1ccccc1NC(=O)Cn1c(CCC(=O)O)ccc1-c1cccs1	17.6
CCOC(=O)c1c(NC(=O)C(F)(OC)C(F)(F)F)sc(C(=O)N2CCCCC2)c1C (stereo not drawn)	4.04
O=C(CS(=O)(=O)Cc1ccccc1)Nc1ccccc1Cl	2.86
N[C@H]1CONC1=O	15.2
CN(NC(=O)/C=C/C(=O)O)c1ncc(C(F)(F)F)cc1Cl	4.18
Nc1ccc2c(c1)C(=O)c1ccccc1C2=O	17
CN(C)CCOC(=O)CCc1ccccc1.Cl	4.63
O=C(Nc1cccc(F)c1)C1CCCN(S(=O)(=O)c2ccccc2)C1 (stereo not drawn)	16.6
O=C(Nc1nc(-c2ccccn2)cs1)c1ccc(Cl)s1	9.8
COc1cccc(N/C(N)=N/c2nc(C(F)(F)F)cc(C(F)(F)F)n2)c1	4.65
Cc1ccc(S(=O)(=O)Nc2cccc(C(=O)NCCCN3CCOCC3)c2)cc1F	-3.66
COc1ccc(-c2cc(C(=O)NCCc3ccc(S(N)(=O)=O)cc3)c3ccccc3n2)cc1	11.6
O=C(C1=C[C@@H](c2coc3ccccc3c2=O)C[C@@H](OCc2ccc(CO)cc2)O1)N1CCCCCCC1	-7.57
Cc1ccc(C(=O)Nc2ccc(C(=O)/C=C/c3cccs3)cc2)cc1	12.1
O=C(Nc1ccc(-c2nc3ccccc3c(=O)o2)cc1)c1ccco1	3.85
N#Cc1c(/N=C/c2cccs2)sc2c1CCCCC2	-3.37
COC(=O)c1cc2c(ccn2-c2ccc(F)cc2)n1Cc1ccc(OC(C)=O)cc1	11.2
O=C(Cc1ccccc1)NNc1c2ccccc2nc2ccccc12	10.4
